The campaign covered roughly 120,000 compounds. About 5,300 (4.4%) were called active. Inconclusive means that the source gave no clear call. Such entries were picked first, then a sample of the others. Calls follow the shape of the dose curve; as a rule, active = well fitted inhibition curve with a large enough effect; inconclusive = small, poorly fitted or top-dose-only effect; inactive = no such curve, though single readings can be large or run the other way. A potency beside an inconclusive call is a rough fit, not a confirmed value.
Test: qHTS Primary assay for Inhibitors of Plasmodium falciparum Dd2 growth in vitro; also: nearly all actives have a fitted effect of over 65% in size
Details: P. falciparum Dd2 growth, SYBR Green, 72 h; series mostly up to 28.9 µM
Method in brief: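 Readout: SYBR Green fluorescence, 485 nm excitation, 535 nm emission, after ~16 h lysis at 37C. Before that, Dd2-infected red cells (2.5% hematocrit) grew 72 h with compound, 29 uM top final concentration.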
Potency is read from the fitted curve at half-maximal effect; tags tell the direction and shape of the fitted curve.

| Compound | Potency |
| --- | --- |
| CCCn1cc(CN2CCC(CO)(Cc3ccccc3Cl)CC2)c(C)n1 | inactive |
| COc1ccc(NC(=O)N(C)Cc2cccc(C(F)(F)F)c2)cc1 | inactive |
| COc1ccc(S(=O)(=O)NC[C@H]2Cn3c(-c4ccc(F)cc4)cnc3CO2)cc1 | inconclusive: 4.47 µM [inhibitor, full curve, poor fit] |
| O=C1NC(=NC2CCCC2)C2(CCCN(CC3CCCCC3)C2)N1c1cc(F)cc(F)c1 (stereo unspecified) | active: 4.47 µM |
| Cc1nc2ccccc2c(=O)n1-c1ccc(NC(=O)c2cccc([N+](=O)[O-])c2)cc1 | inconclusive: 17.8 µM [inhibitor, single point] |
| CCn1ccnc1C1CCN(c2nc3ccccc3s2)CC1 | inconclusive: 3.98 µM [inhibitor, partial curve, poor fit] |
| CN1C[C@@H](NC(=O)c2ccc3c(c2)OCO3)C[C@H]1c1nc(-c2ccc(Cl)cc2)no1 | active: 10 µM |
| CC(C)c1ccc(N2C(=O)CS(=O)(=O)C23C(=O)N(Cc2cccc(F)c2)c2ccccc23)cc1 (stereo unspecified) | inconclusive: 17.8 µM [inhibitor, single point] |
| Cc1cnc(C(=O)N[C@@H]2CCC[C@@H]2C(=O)N2CCN(c3cccc(C)c3C)CC2)cn1 | inconclusive: 10 µM [inhibitor, single point] |
| O=C(c1ccc2[nH]ccc2c1)N1CCC2(CC1)N=C(c1ccc(Br)cc1)NO2 | inconclusive: 1.41 µM [inhibitor, partial curve] |
| O=C(Cn1c(=O)n(Cc2cccs2)c(=O)c2cccnc21)Nc1ccc(F)cc1 | inconclusive: 11.2 µM [inhibitor, single point] |
| CCOc1ccc(NC(=O)Cn2c(=O)n(-c3ccccc3)c(=O)c3ccc(C(=O)NCc4ccc5c(c4)OCO5)cc32)cc1 | inconclusive: 3.98 µM [inhibitor, single point] |
| O=C(Nc1ccc(Oc2ccccc2)cc1)N[C@H]1CO[C@H]2[C@@H]1OC[C@@H]2n1cc(-c2ccccn2)nn1 | inactive |
| COc1ccc(C(C)NC(=O)c2c(C)oc3ccn(Cc4cccc(F)c4)c(=O)c23)cc1 (stereo unspecified) | inconclusive: 2.51 µM [inhibitor, full curve, poor fit] |
| COc1ccc(NC(=O)C2CCN(S(=O)(=O)c3ccc4[nH]c5c(c4c3)CCCCC5)CC2)cc1 | inconclusive: 17.8 µM [inhibitor, single point] |
| CC1CCN(C(=O)C[C@@H]2c3nc(NC(=O)c4ccnc(Cl)c4)sc3C[C@@H]3[C@](C)(CO)[C@H](O)CC[C@]32C)CC1 | active: 6.31 µM |
